Results reported in a collection of fitness landscapes (doi:10.1016/j.celrep.2020.107928).
Whole data set: some 81,000 sequences, median “one-hybrid fitness for binding NBS DNA” near -0.1, cut for the highest 2% near 0.36. Some of the results follow.

B1: Caulobacter ParB omega fusion; a variant is named by its letters at X, in order, B8GW30 (parent)
chain: MESVVVGEPGMSEGRRGLGRGLSALLGEVDAAPAQAPGEQLGGSREAPIEILQRNPDQPRRTFREEDLEDLSNSIREKGVLQPILVRPSPDTAGEYQIVAGERAWRAAQRAGLKTVPIMVRELDDLAVLEIGIIENVQRADLNVLEEALSYKVLMEKFERTQENIAQTIGKSXSHVANXMRLLXLPDEVQSYLVSGELTAXHARAIAAAADPVALAKQIIEGGLSVRETEALARKAPNLSAGKSKGGRPPRVKDTDTQALESDLSSVLGLDVSIDHRGSTGTLTITYATLEQLDDLCNRLTRGI

Variants of: B1
Assay: one-hybrid fitness for binding NBS DNA (the Noc-binding site; scaled: cognate 1, non-cognate 0); higher = stronger binding
Conditions: with NBS DNA site
Method in brief: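 Values were rescaled so that cognate is 1 and non-cognate is 0. Each is a fitness, the log change in a variant's read ratio to wild type from Illumina reads of plasmids before and after selection, with three replicate libraries pooled and variants under 10 reads dropped. Selection of the Caulobacter ParB libraries, four specificity codons randomised, used E. coli USO with a HIS3 reporter, site 19 bp from the promoter, on M9-minus-histidine with 0.1 mM IPTG and 5 mM 3-AT for 48 hours at 37°C.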

Variant | one-hybrid fitness for binding NBS DNA
VELT | ≤ 0.2
VNKC | ≤ 0.2
TLML | ≤ 0.2
CPAL | ≤ 0.2
NAPC | ≤ 0.2
CPVD | ≤ 0.2
CQKG | ≤ 0.2
LKNE | ≤ 0.2
HNFL | ≤ 0.2
TAPQ | ≤ 0.2
FMSC | ≤ 0.2
MCNV | ≤ 0.2
WAMC | ≤ 0.2
SFDS | ≤ 0.2
RVIN | ≤ 0.2
KYGT | ≤ 0.2
LDDA | ≤ 0.2
LGAL | ≤ 0.2
IAQI | ≤ 0.2
QYAR | 0.517
RDAK | ≤ 0.2
GTHG | ≤ 0.2
ALNI | ≤ 0.2
ESMM | ≤ 0.2
VTCF | ≤ 0.2
YGPE | ≤ 0.2

Variant | one-hybrid fitness for binding NBS DNA
QANR | 0.583
CFRE | ≤ 0.2
WALV | ≤ 0.2
PLGD | ≤ 0.2
MPKW | ≤ 0.2
RTHM | ≤ 0.2
RRYP | ≤ 0.2
PSVH | ≤ 0.2
YMKS | ≤ 0.2
DRRV | ≤ 0.2
ATYT | ≤ 0.2
EVCT | ≤ 0.2
GTNG | ≤ 0.2
VRAY | ≤ 0.2
RNDK | ≤ 0.2
LRKW | ≤ 0.2
QRGE | 0.286
MSIR | ≤ 0.2
QSSF | ≤ 0.2
CPRA | ≤ 0.2
SQSA | ≤ 0.2
MMHC | ≤ 0.2
RYQW | 0.361
PGIT | ≤ 0.2
DNEL | ≤ 0.2
RPEM | ≤ 0.2

Variant | one-hybrid fitness for binding NBS DNA
VPHL | ≤ 0.2
WRQT | ≤ 0.2
AYKV | ≤ 0.2
CGIG | ≤ 0.2
TGDT | ≤ 0.2
TQTD | ≤ 0.2
CLQT | ≤ 0.2
ARCR | ≤ 0.2
RKWV | ≤ 0.2
AYSE | ≤ 0.2
SWKV | ≤ 0.2
SKYC | ≤ 0.2
WLRS | ≤ 0.2
PEFC | ≤ 0.2
PNKV | ≤ 0.2
SHYR | ≤ 0.2
KQID | ≤ 0.2
SCGC | ≤ 0.2
SSDW | ≤ 0.2
RNNE | ≤ 0.2
CKQR | ≤ 0.2
IDKT | ≤ 0.2
TMGY | ≤ 0.2
EDTS | ≤ 0.2
TRKN | 0.212
KFAP | ≤ 0.2

Variant | one-hybrid fitness for binding NBS DNA
DAHR | ≤ 0.2
RQIV | ≤ 0.2
KHML | ≤ 0.2
NMTH | ≤ 0.2
DDTS | ≤ 0.2
TYDV | ≤ 0.2
RVQP | ≤ 0.2
PLCE | ≤ 0.2
SLAR | ≤ 0.2
QQDP | ≤ 0.2
RADA | ≤ 0.2
IMGS | ≤ 0.2
KFQG | ≤ 0.2
ISTM | ≤ 0.2
QHHF | ≤ 0.2
TVRN | ≤ 0.2
VKPR | ≤ 0.2
CVYC | ≤ 0.2
LGHD | ≤ 0.2
QKEP | ≤ 0.2
ITKS | ≤ 0.2
LCYT | ≤ 0.2
SGRY | ≤ 0.2
SFRM | ≤ 0.2
GKVY | ≤ 0.2
ARVF | ≤ 0.2

Variant | one-hybrid fitness for binding NBS DNA
TQSL | ≤ 0.2
NEPR | ≤ 0.2
LSPA | ≤ 0.2
CGSR | ≤ 0.2
TWYT | ≤ 0.2
HQSM | ≤ 0.2
IYLN | ≤ 0.2
LYRR | ≤ 0.2
QDTE | ≤ 0.2
RRCV | 0.255
YTRM | ≤ 0.2
IVSV | ≤ 0.2
HKES | ≤ 0.2
CRCE | ≤ 0.2
QCAW | 0.27
FVTE | ≤ 0.2
HELC | ≤ 0.2
GQII | ≤ 0.2
GMST | ≤ 0.2
FGAV | ≤ 0.2
ANLV | ≤ 0.2
LQMW | ≤ 0.2
VKHL | ≤ 0.2
PVYR | ≤ 0.2
VLCL | ≤ 0.2
RVRK | ≤ 0.2

Variant | one-hybrid fitness for binding NBS DNA
ACPQ | ≤ 0.2
WQQG | ≤ 0.2
RWGK | ≤ 0.2
STMS | ≤ 0.2
PHNV | ≤ 0.2
AWKC | ≤ 0.2
VTNN | ≤ 0.2
YGQC | ≤ 0.2
KCRI | ≤ 0.2
QPRV | ≤ 0.2
AIVA | ≤ 0.2
KHFG | ≤ 0.2
TNLL | ≤ 0.2
YAVM | ≤ 0.2
IARM | ≤ 0.2
CSST | ≤ 0.2
NCIT | ≤ 0.2
PSAL | ≤ 0.2
GFAS | ≤ 0.2
PFWL | ≤ 0.2
PRAD | ≤ 0.2
LMHR | ≤ 0.2
QPMC | ≤ 0.2
